# The supplement of paper PMC3334620
# In all, about 33,000 sequences were measured (“E-score (-0.5 to 0.5)”: median about -0.043, highest 2% from about 0.37 on). The list shows a part of the results.
# Target: T1, Upc2 (UniProt Q12151)
# T1 sequence: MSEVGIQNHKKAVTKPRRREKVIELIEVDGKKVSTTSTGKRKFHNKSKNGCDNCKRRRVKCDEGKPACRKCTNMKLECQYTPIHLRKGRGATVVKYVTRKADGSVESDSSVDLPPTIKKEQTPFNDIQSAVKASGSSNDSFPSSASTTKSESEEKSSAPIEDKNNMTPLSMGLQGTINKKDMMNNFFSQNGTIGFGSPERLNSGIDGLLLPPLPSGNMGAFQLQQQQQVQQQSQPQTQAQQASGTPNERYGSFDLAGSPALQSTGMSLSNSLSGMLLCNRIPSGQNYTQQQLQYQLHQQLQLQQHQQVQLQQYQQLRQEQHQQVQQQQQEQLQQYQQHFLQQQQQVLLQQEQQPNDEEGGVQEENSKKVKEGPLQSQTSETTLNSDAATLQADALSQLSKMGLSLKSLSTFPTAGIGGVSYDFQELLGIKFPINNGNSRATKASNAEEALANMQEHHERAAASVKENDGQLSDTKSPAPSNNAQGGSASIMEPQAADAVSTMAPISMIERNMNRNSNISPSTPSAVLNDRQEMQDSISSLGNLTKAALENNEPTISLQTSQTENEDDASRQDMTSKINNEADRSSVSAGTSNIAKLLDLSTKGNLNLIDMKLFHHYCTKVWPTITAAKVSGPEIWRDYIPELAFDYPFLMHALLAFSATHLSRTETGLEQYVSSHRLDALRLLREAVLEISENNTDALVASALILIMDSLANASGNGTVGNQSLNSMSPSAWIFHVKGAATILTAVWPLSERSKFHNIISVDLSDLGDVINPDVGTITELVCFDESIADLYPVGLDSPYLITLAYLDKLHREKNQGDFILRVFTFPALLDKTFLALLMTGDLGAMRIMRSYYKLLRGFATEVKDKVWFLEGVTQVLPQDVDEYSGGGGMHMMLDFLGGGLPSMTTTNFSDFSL
# Test: PBM E-score (8-mer binding enrichment) (E-score (-0.5 to 0.5)); higher = stronger / more preferred TF binding; most listed sequences are background and not binding sites
# Details: protein concentration: 200 nM; construct: GST-full length
# Procedure: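 Universal 'all 10-mer' protein binding microarrays (Agilent AMADID 015681) probed with GST-tagged S. cerevisiae TFs (full-length or DBD) made by in vitro transcription/translation (PURExpress), about 100-200 nM. Bound TF was detected with fluorescent anti-GST. Each ungapped 8-mer (which stands for itself and its reverse complement) is scored by the PBM enrichment score (E-score), a modified Wilcoxon-Mann-Whitney statistic from -0.5 to +0.5, computed with the Universal PBM Analysis Suite. Scale: above 0.35 generally sequence-specific binding.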
row,Sequence,PBM E-score
1,GAGAAGAC,-0.0478
2,AGACTAAA,-0.0936
3,CACGCCAG,-0.0201
4,ATCCGAGC,0.208
5,CCACGAAG,-0.115
6,CTTTACCA,-0.146
7,CCGTGCCG,0.137
8,CGTACAAA,0.421
9,CCTGCCCG,-0.228
10,AGAATGTG,-0.0453
11,GTGAGATA,-0.125
12,AAACAGGC,-0.201
13,GGAGAGAA,-0.218
14,AAGAACAA,0.0297
15,ATGGTACC,-0.257
16,GAACCTGC,0.115
17,AAGCCGTC,-0.0182
18,ACTGTCAT,-0.11
19,AGATTTAC,0.0747
20,ATGGAAGG,-0.326
21,GATCCGTA,0.343
22,CCTTGAGC,-0.197

row,Sequence,PBM E-score
1,CTTCGATC,0.0841
2,TGCACACA,0.0289
3,CACAACGG,-0.161
4,CATGGCCG,-0.144
5,TGGTAGAA,-0.154
6,TAAAAGAA,0.247
7,CCCTACCG,-0.194
8,CATACTGC,-0.0808
9,CAGGCGGG,-0.208
10,CAAGAATA,-0.0513
11,ATCTACGC,0.0599
12,ATGACTCA,0.029
13,CTTCGAAA,-0.0154
14,AAGTGAGG,-0.123
15,ACAGTCAT,-0.254
16,AACAGTCA,-0.205
17,ACCGCTCC,-0.0981
18,CGGTAACC,0.153
19,AGTGGCAC,-0.2
20,GTTCAAAC,0.178
21,ATGAAGAG,-0.119
22,CAGCCTGA,-0.229

row,Sequence,PBM E-score
1,CCCATAAA,-0.0286
2,ACTTTTAC,0.276
3,GTCAGAGA,-0.194
4,TTATGGAA,-0.0191
5,ATGCAAAC,0.157
6,ATTGACGA,0.031
7,TACGCTGA,0.268
8,AGCACGGC,-0.0241
9,ACAGGAGT,-0.199
10,GAGTCCCC,-0.401
11,ATCCAATC,-0.083
12,ACTTAGAA,0.119
13,AATCTTAA,0.0256
14,CGGCGAAA,0.148
15,CGGGCTGA,-0.0843
16,AGACTTAA,-0.021
17,AGAAATAA,-0.0255
18,AATGGTGA,-0.152
19,GCCATAGA,-0.0542
20,GTGGGCTA,-0.128
21,AGAAGTCG,-0.0197
22,CATGTCTA,-0.179

row,Sequence,PBM E-score
1,ACATGCAT,0.0115
2,CCCACCGG,-0.166
3,GTGGATGA,-0.213
4,ATCCGGAG,0.00834
5,CGCCTGTA,-0.0476
6,AATAAATG,0.013
7,AAACAATG,0.0166
8,GATGCTTA,-0.0276
9,AGTCAACC,-0.073
10,GGCTGCAC,-0.118
11,GGCATTAA,0.0625
12,AAGTATCT,-0.0174
13,GCGCAGAA,-0.0278
14,CGTAGGAG,0.129
15,ACTGGTCC,-0.0492
16,CACGTCAG,-0.202
17,ATAACTAA,-0.0559
18,ATGTTTAC,0.172
19,AAACCTTG,-0.371
20,TCCATCAA,-0.0944
21,GGAGGTGA,-0.0372
22,GAACAGAC,-0.00742

row,Sequence,PBM E-score
1,GTTGGGAA,-0.0141
2,GGGATATA,-0.193
3,AGCCGGGC,-0.0832
4,CGCTCAAC,0.126
5,ACATTCGA,0.0307
6,ATAATAAT,0.0597
7,AGCAGGAT,-0.212
8,ACCCCCGC,-0.233
9,AGCCCCGA,-0.17
10,ATCATAAG,0.0881
11,TAGGCCAA,-0.123
12,GAGCAGGC,-0.146
13,AAAGTATT,-0.149
14,CGGTGTAA,0.15
15,CACGCGCC,-0.158
16,GGTATAGA,0.111
17,GTGGGTAA,-0.183
18,GACAGGCA,-0.0853
19,ACTGAAGT,-0.0535
20,ATTCGATC,0.0986
21,ATCACGGC,-0.0304
